Results from FireProtDB.

Settings: Salmonella phage P22; pH 7.5; Thermal; CD; Tris-HCl 50 mM; KCl 250 mM; whole UniProt chain shown

B1: Transcriptional repressor arc wild type, P03050 (protein)
chain: MKGMSKMPQFNLRWPREVLDLVRKVAEENGRSVNSEIYQRVMESFKKEGRIGA
With B1 the Tm was 57.9 °C [study A] and 53.5 °C [study B].

A number of entries come with more than one value. The other results are left out here. There may be further records. Results that share an entry repeat one measurement across runs, samples, wells, individuals or studies. What stands in brackets tells the records apart. A, B and so on number the origins entry by entry.
